B1: AUCGCCG (DNA:RNA)
RNA: GGGAGACCGGAAUUCAGAUUGUCCAUCGCCGUUAAAUCCCGUCGUAGCCACCA
DNA 1: CAATCTGAATTCCGGTCTCCC
DNA 2: TGGTGGCTACGACGGGATT
B2: UAACCGU (DNA:RNA)
RNA: B1 RNA with A25U, U26A, C27A, G28C, C30G, G31U
DNA 1: CAATCTGAATTCCGGTCTCCC
DNA 2: TGGTGGCTACGACGGGATT
B3: UUCCUUG (DNA:RNA)
RNA: B1 RNA with A25U, G28C, C29U, C30U
DNA 1: CAATCTGAATTCCGGTCTCCC
DNA 2: TGGTGGCTACGACGGGATT
B4: UAACGCU (DNA:RNA)
RNA: B1 RNA with A25U, U26A, C27A, G28C, C29G, G31U
DNA 1: CAATCTGAATTCCGGTCTCCC
DNA 2: TGGTGGCTACGACGGGATT
B5: CGGCCAU (DNA:RNA)
RNA: B1 RNA with A25C, U26G, C27G, G28C, C30A, G31U
DNA 1: CAATCTGAATTCCGGTCTCCC
DNA 2: TGGTGGCTACGACGGGATT
B6: CUUAUAG (DNA:RNA)
RNA: B1 RNA with A25C, C27U, G28A, C29U, C30A
DNA 1: CAATCTGAATTCCGGTCTCCC
DNA 2: TGGTGGCTACGACGGGATT
B7: GCCGUCC (DNA:RNA)
RNA: B1 RNA with A25G, U26C, C29U, G31C
DNA 1: CAATCTGAATTCCGGTCTCCC
DNA 2: TGGTGGCTACGACGGGATT
B8: UUAGCAC (DNA:RNA)
RNA: B1 RNA with A25U, C27A, C30A, G31C
DNA 1: CAATCTGAATTCCGGTCTCCC
DNA 2: TGGTGGCTACGACGGGATT
B9: ACUUUGC (DNA:RNA)
RNA: B1 RNA with U26C, C27U, G28U, C29U, C30G, G31C
DNA 1: CAATCTGAATTCCGGTCTCCC
DNA 2: TGGTGGCTACGACGGGATT
B10: AAUCAUU (DNA:RNA)
RNA: B1 RNA with U26A, C27U, G28C, C29A, C30U, G31U
DNA 1: CAATCTGAATTCCGGTCTCCC
DNA 2: TGGTGGCTACGACGGGATT
B11: CGAACAU (DNA:RNA)
RNA: B1 RNA with A25C, U26G, C27A, G28A, C30A, G31U
DNA 1: CAATCTGAATTCCGGTCTCCC
DNA 2: TGGTGGCTACGACGGGATT
B12: UUCCAGU (DNA:RNA)
RNA: B1 RNA with A25U, G28C, C29A, C30G, G31U
DNA 1: CAATCTGAATTCCGGTCTCCC
DNA 2: TGGTGGCTACGACGGGATT
B13: AGGGUAG (DNA:RNA)
RNA: B1 RNA with U26G, C27G, C29U, C30A
DNA 1: CAATCTGAATTCCGGTCTCCC
DNA 2: TGGTGGCTACGACGGGATT
B14: UGUAUUU (DNA:RNA)
RNA: GGGAGACCGGAAUUCAGAUUGUCCUGUAUUUUUAAAUCCCGUCGUAGCCACCA
DNA 1: CAATCTGAATTCCGGTCTCCC
DNA 2: TGGTGGCTACGACGGGATT
B15: ACUCCCC (DNA:RNA)
RNA: B1 RNA with U26C, C27U, G28C, G31C
DNA 1: CAATCTGAATTCCGGTCTCCC
DNA 2: TGGTGGCTACGACGGGATT
B16: ACUCUCC (DNA:RNA)
RNA: B1 RNA with U26C, C27U, G28C, C29U, G31C
DNA 1: CAATCTGAATTCCGGTCTCCC
DNA 2: TGGTGGCTACGACGGGATT
B17: CCCCCUC (DNA:RNA)
RNA: B1 RNA with A25C, U26C, G28C, C30U, G31C
DNA 1: CAATCTGAATTCCGGTCTCCC
DNA 2: TGGTGGCTACGACGGGATT
B18: AUGUUAC (DNA:RNA)
RNA: B1 RNA with C27G, G28U, C29U, C30A, G31C
DNA 1: CAATCTGAATTCCGGTCTCCC
DNA 2: TGGTGGCTACGACGGGATT
B19: AAACGGG (DNA:RNA)
RNA: B1 RNA with U26A, C27A, G28C, C29G, C30G
DNA 1: CAATCTGAATTCCGGTCTCCC
DNA 2: TGGTGGCTACGACGGGATT
B20: UCCUGUU (DNA:RNA)
RNA: B14 RNA with G26C, U27C, A28U, U29G
DNA 1: CAATCTGAATTCCGGTCTCCC
DNA 2: TGGTGGCTACGACGGGATT

Changes are numbered by the printed parent chain; changes in the protein carry UniProt numbers. The list shows a part of the results.

The target in this assay is T1, RBFOX1 RRM RbFoxmut (Fox-RRM*) (Homo sapiens, UniProt Q9NWB1 109-208, R118D;E147R;N151S;E152T).
T1 sequence: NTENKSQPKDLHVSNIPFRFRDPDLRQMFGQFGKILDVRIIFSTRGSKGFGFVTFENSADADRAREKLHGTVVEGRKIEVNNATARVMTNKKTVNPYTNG
Kind of assay: EMSA; HiTS-Eq, 1 nM pool, 10 min; buffer printed only for the single-RNA assays: 10 mM Tris pH 7.5, 150 mM NaCl, 3.4 mM EDTA, 0.001% NP-40, 30 C. To be noted: tags: His6 N-terminal (pET28a); label: 5' 32P. Summed up:
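A pool of RNA with 7 randomized nucleotides, 5′-radiolabelled and with DNA-annealed flanks, was equilibrated at 1 nM for 10 min in 50 µL with purified RbFox RRM, wild type or mutant, across increasing protein concentrations. Free RNA was separated by 8% native PAGE, excised, reverse-transcribed, barcoded by PCR and sequenced. Relative association constants were obtained from read-count changes of each RNA species versus the control reaction and normalised to the cognate motif.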
In general terms: Mobility shift assays separate free from complexed probe on a gel.
Regarding B1, the binding signal was 0.108 KA relative to UGCAUGU.
B2: the binding signal was 0.0757 KA relative to UGCAUGU.
Under B3 stands 0.111 KA relative to UGCAUGU.
With B4, the binding signal is 0.057 KA relative to UGCAUGU.
Then B5, with 0.0673 KA relative to UGCAUGU; and B6, with 0.191 KA relative to UGCAUGU; and B7, with 0.0566 KA relative to UGCAUGU.
Under B8 stands 0.0935 KA relative to UGCAUGU.
Under B9 stands 0.12 KA relative to UGCAUGU.
Regarding B10, the binding signal was 0.0671 KA relative to UGCAUGU.
Then B11, with 0.0626 KA relative to UGCAUGU; and B12, with 0.084 KA relative to UGCAUGU.
Under B13 stands 0.167 KA relative to UGCAUGU; under B14, 0.106 KA relative to UGCAUGU.
Under B15 stands 0.0489 KA relative to UGCAUGU; under B16, 0.0423 KA relative to UGCAUGU; under B17, 0.0703 KA relative to UGCAUGU.
For B18, the binding signal was 0.161 KA relative to UGCAUGU.
Turning to B19, the binding signal is 0.0603 KA relative to UGCAUGU.
Then B20, with 0.087 KA relative to UGCAUGU.

The record behind these values is PMC9911399, “Two distinct binding modes provide the RNA-binding protein RbFox with extraordinary sequence specificity”.
